Among all 39,000 compounds or so, about 220 (0.56%) showed activity. The list shows a part of the results.
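Further: static incubation at 37 °C against the wild-type strain, values averaged over two biological replicates.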

The subject of this experiment is Escherichia coli K-12 BW25113. In words: relative growth (OD600 normalised to plate interquartile mean) (fraction); higher = less growth inhibition, active = 0.2 or less. As to conditions: 50 µM; LB; incubation time: overnight (16-24 h).
On to `C[C@@H]1CN([C@@H](C)CO)C(=O)c2cc(NS(=O)(=O)c3cn(C)cn3)ccc2O[C@@H]1CN(C)CC1CCCCC1`, for which the relative growth is inactive: 0.986.
With `COCC(=O)N1CC[C@]2(CC(C(=O)NCc3cnc(C)cn3)=NO2)C1`, the relative growth was inactive: 1.
With `COc1ccccc1-c1ccc2c(c1)O[C@H](CN(C)C(=O)c1ccncc1)[C@@H](C)CN([C@@H](C)CO)S2(=O)=O`, the relative growth was inactive: 1.02.
The figure for `CCOC(=O)c1cc2c(c(-c3cccc(Br)c3)n1)[C@@H](CCOC)N([S@](=O)C(C)(C)C)C2` is inactive: 0.998; for `C[C@@H]1CN([C@H](C)CO)C(=O)Cc2cc(NC(=O)Nc3ccc(C(F)(F)F)cc3)ccc2O[C@@H]1CN(C)CC1CCCCC1` it is inactive: 1.01; for `COc1ccc(CN(C)C[C@H]2OCCCC[C@@H](C)Oc3ccc(NC(=O)Nc4ccc5c(c4)OCO5)cc3C(=O)N([C@H](C)CO)C[C@H]2C)cc1` it is inactive: 0.999.
For `C[C@H](CO)N1C[C@H](C)[C@@H](CN(C)S(=O)(=O)c2ccccc2)Oc2c(NC(=O)Nc3cccc4ccccc34)cccc2C1=O`, the relative growth was inactive: 0.934.
As for `C[C@H]1CN([C@@H](C)CO)C(=O)Cc2cc(NC(=O)CCCN(C)C)ccc2O[C@@H]1CN(C)S(=O)(=O)c1cn(C)cn1`, the relative growth was inactive: 0.983.
Then `Cc1noc(C)c1S(=O)(=O)Nc1ccc2c(c1)C(=O)N([C@@H](C)CO)C[C@@H](C)[C@H](CN(C)S(=O)(=O)c1cn(C)cn1)OCCCC[C@@H](C)O2`, with inactive: 0.981.
Take `C=CCNS(=O)(=O)c1cccc2nonc12`: the relative growth is inactive: 0.97.
With `CCCCCC(C)N.O=S(=O)(O)O` (configuration not stated), the relative growth was inactive: 1.02.
The figure for `C[C@H]1O[C@@H](O[C@H]2[C@@H](O)C[C@H](O[C@H]3[C@@H](O)C[C@H](O[C@H]4CC[C@@]5(C)[C@H](CC[C@@H]6[C@@H]5C[C@@H](O)[C@@]5(C)[C@@H](C7=CC(=O)OC7)CC[C@]65O)C4)O[C@@H]3C)O[C@@H]2C)C[C@H](O)[C@@H]1O` is inactive: 1.01; for `C[C@@H]1CN([C@@H](C)CO)C(=O)c2cc(NC(=O)Nc3ccc(F)cc3)ccc2O[C@H]1CN(C)Cc1ccc(-c2ccccc2)cc1` it is inactive: 0.986; for `C[C@@H]1CCCCO[C@H](CN(C)C(=O)Nc2ccc3c(c2)OCO3)[C@H](C)CN([C@H](C)CO)C(=O)c2cc(NC(=O)C3CCCCC3)ccc2O1` it is inactive: 1.
`C[C@H](CO)N1C[C@H](C)[C@@H](CN(C)C(=O)NC2CCCCC2)Oc2ccc(NC(=O)CCN3CCOCC3)cc2C1=O`: the relative growth was inactive: 1.02.
Regarding `Cc1cc(=O)c(C(=O)N[C@@H](C(=O)N[C@@H]2C(=O)N3C(C(=O)O)=C(CSc4nnnn4C)CS[C@H]23)c2ccc(O)cc2)c[nH]1`, the relative growth is active: 0.0389.
On to `CN1CCN(C(=O)C[C@@H]2CC[C@H]3[C@@H](COC[C@H](O)CN3C(=O)Nc3ccc4c(c3)OCO4)O2)CC1`, for which the relative growth was inactive: 0.994.
As for `C[C@@H]1CN([C@H](C)CO)C(=O)c2cc(/C=C/c3ccccc3)cnc2O[C@H]1CN(C)C(=O)c1cnccn1`, the relative growth is inactive: 1.
For the compound `C[C@H](CO)N1C[C@H](C)[C@@H](CN(C)C(=O)NC2CCCCC2)OCCCC[C@H](C)Oc2ccc(NC(=O)CCC(F)(F)F)cc2C1=O`, the relative growth is inactive: 0.978.
On to `C[C@H](O)C#Cc1ccc2c(c1)O[C@H](CN(C)C(=O)CN(C)C)[C@@H](C)CN([C@H](C)CO)S2(=O)=O`, for which the relative growth is inactive: 0.933.
Regarding `Cc1cc(C(F)(F)F)cc(Cl)n1`, the relative growth is inactive: 0.988.
For the compound `C[C@@H]1CN([C@H](C)CO)C(=O)c2cc(NS(=O)(=O)c3ccc(Cl)cc3)ccc2O[C@H]1CN(C)Cc1ccc(C(F)(F)F)cc1`, the relative growth is inactive: 1.05.
For `CCc1nc2ccc(C(=O)N3CCN(S(=O)(=O)CC)CC3)cn2c1N(CCC(C)C)CCN(C)C`, the relative growth was inactive: 0.994.
Then `CC(=O)OC1CC2CCC1(C)C2(C)C` (configuration not stated), with inactive: 0.978.
`C[C@H](O)C#Cc1ccc2c(c1)O[C@@H](CN(C)C(=O)c1ccncc1)[C@@H](C)CN([C@@H](C)CO)S2(=O)=O`: the relative growth is inactive: 0.968.
`C[C@H](CO)N1C[C@H](C)[C@@H](CN(C)Cc2ccc(-c3ccccc3)cc2)Oc2ccc(NS(=O)(=O)c3ccc(F)cc3)cc2C1=O`: the relative growth was inactive: 1.04.
`COc1ccc(S(=O)(=O)Nc2ccc3c(c2)CC(=O)N([C@H](C)CO)C[C@H](C)[C@@H](CN(C)Cc2ccc(C(=O)O)cc2)O3)cc1`: the relative growth was inactive: 0.997.
The figure for `CCCN1C[C@H](C)[C@H](OC)CN(C)C(=O)c2cc(NS(=O)(=O)c3cn(C)cn3)ccc2OC[C@@H]1C` is inactive: 0.972.
In the case of `C[C@@H]1CN([C@H](C)CO)C(=O)c2cc(C3=CCCC3)cnc2O[C@@H]1CN(C)C(=O)c1ccc2c(c1)OCO2`, the relative growth was inactive: 1.
For the compound `C[C@H]1CN([C@@H](C)CO)S(=O)(=O)c2ccc(C#Cc3ccccc3)cc2O[C@H]1CN(C)C(=O)c1ccccn1`, the relative growth is inactive: 1.03.
On to `C[C@@H]1CN([C@@H](C)CO)C(=O)Cc2cc(NC(=O)Nc3ccc4c(c3)OCO4)ccc2O[C@H]1CN(C)Cc1ccc(Cl)c(Cl)c1`, for which the relative growth was inactive: 1.03.
With `Cc1ccc(S(=O)(=O)Nc2ccc3c(c2)C(=O)N([C@@H](C)CO)C[C@H](C)[C@@H](CN(C)Cc2ccc(Oc4ccccc4)cc2)O3)cc1`, the relative growth was inactive: 0.947.
Consider `Cn1cnc(CCNC(=O)C[C@H]2CC[C@@H]3[C@H](COC[C@H](O)CN3C(=O)C3CC3)O2)c1`, for which the relative growth is inactive: 0.959.
Regarding `CO[C@H]1CN(C)C(=O)c2cc(NS(C)(=O)=O)ccc2OC[C@H](C)N(C(=O)C2CCOCC2)C[C@H]1C`, the relative growth was inactive: 0.982.
The figure for `C[C@@H]1CCCCO[C@H](CN(C)C(=O)CCC(F)(F)F)[C@H](C)CN([C@@H](C)CO)C(=O)c2cc(NC(=O)Nc3ccc4c(c3)OCO4)ccc2O1` is inactive: 0.984.
The figure for `C[C@@H]1CCCCO[C@@H](CN(C)Cc2ccc(Cl)c(Cl)c2)[C@H](C)CN([C@H](C)CO)C(=O)c2cc(NC(=O)c3ccccc3)ccc2O1` is inactive: 1; for `Cc1noc(C)c1NC(=O)Nc1ccc2c(c1)CC(=O)N([C@H](C)CO)C[C@H](C)[C@H](CN(C)S(=O)(=O)c1ccccc1)O2` it is inactive: 1.05.

(Values after the supplement of paper PMC9446081.)
